Experimental data as given in patent US20110207917A1 (PATRYS, published 2011).

B1: SAM-6 1.1A scFv (scFv)
scFv: QVQLVESGGGVVQPGRSLRLSCAASGFTFSSYAMHWVRQAPGKGLEWVAVISYDGSNKYYADSVKGRFTISRDNSKNTLYLQMNSLRAEDTAVYYCARDRLAVAGRPFDYWGQGTLVTVSSGGGGS[left out - about 100 residues]
notes: scFv dimer (diabody) expressed in bacteria from the pPOW vector; also called scFv 1.1A; SAM-6 1.1A diabody; not shown: C-terminal FLAG tag (a His tag is implied by anti-HIS purification)
B2: SAM-6 2.7A scFv (scFv)
scFv: EVQLVESGGGVVQPGRSLRLSCAASGFTFSSYAMHWVRQAPGKGLEWVAVISYDGSNKYYADSVKGRFTISRDNSKNTLYLQMNSLRAEDTAVYYCARDRLAVAGRPFDYWGQGTLVTVSSGGGGS[left out - about 100 residues]
notes: also called SAM-6.2.7.ScFv; SM6 2.7A scFv; not shown: FLAG tag (and His tag, Ni-NTA purification)
B3: SAM-6 KTA scFv (scFv)
scFv: QVQLVESGGGVVQPGRSLRLSCAASGFTFSSYAMHWVRQAPGKGLEWVAVISYDGSNKYYADSVKGRFTISRDNSKNTLYLQMNSLRAEDTAVYYCARDRLAVAGKTFDYWGQGTLVTVSSGGGGS[left out - about 100 residues]
notes: scFv dimer, bacterial expression; also called scFv KTA (SAM-6 old); KTA diabody; not shown: FLAG tag (and His tag, anti-HIS purification)

Legend:
Apolipoprotein B100 [1] = biological target: T1, Apolipoprotein B100 (UniProt P04114 28-4563); experiment: ELISA on a panel of coated antigens (0.5 ug/well)
T1 construct: also called apoB100; ApoB100 protein

Apolipoprotein B100 [2] = biological target: T1, Apolipoprotein B100; experiment: ELISA on coated ApoB100 (10 ug/ml), anti-FLAG-HRP detection
T1 sequence (P04114 28-4563 limits assumed): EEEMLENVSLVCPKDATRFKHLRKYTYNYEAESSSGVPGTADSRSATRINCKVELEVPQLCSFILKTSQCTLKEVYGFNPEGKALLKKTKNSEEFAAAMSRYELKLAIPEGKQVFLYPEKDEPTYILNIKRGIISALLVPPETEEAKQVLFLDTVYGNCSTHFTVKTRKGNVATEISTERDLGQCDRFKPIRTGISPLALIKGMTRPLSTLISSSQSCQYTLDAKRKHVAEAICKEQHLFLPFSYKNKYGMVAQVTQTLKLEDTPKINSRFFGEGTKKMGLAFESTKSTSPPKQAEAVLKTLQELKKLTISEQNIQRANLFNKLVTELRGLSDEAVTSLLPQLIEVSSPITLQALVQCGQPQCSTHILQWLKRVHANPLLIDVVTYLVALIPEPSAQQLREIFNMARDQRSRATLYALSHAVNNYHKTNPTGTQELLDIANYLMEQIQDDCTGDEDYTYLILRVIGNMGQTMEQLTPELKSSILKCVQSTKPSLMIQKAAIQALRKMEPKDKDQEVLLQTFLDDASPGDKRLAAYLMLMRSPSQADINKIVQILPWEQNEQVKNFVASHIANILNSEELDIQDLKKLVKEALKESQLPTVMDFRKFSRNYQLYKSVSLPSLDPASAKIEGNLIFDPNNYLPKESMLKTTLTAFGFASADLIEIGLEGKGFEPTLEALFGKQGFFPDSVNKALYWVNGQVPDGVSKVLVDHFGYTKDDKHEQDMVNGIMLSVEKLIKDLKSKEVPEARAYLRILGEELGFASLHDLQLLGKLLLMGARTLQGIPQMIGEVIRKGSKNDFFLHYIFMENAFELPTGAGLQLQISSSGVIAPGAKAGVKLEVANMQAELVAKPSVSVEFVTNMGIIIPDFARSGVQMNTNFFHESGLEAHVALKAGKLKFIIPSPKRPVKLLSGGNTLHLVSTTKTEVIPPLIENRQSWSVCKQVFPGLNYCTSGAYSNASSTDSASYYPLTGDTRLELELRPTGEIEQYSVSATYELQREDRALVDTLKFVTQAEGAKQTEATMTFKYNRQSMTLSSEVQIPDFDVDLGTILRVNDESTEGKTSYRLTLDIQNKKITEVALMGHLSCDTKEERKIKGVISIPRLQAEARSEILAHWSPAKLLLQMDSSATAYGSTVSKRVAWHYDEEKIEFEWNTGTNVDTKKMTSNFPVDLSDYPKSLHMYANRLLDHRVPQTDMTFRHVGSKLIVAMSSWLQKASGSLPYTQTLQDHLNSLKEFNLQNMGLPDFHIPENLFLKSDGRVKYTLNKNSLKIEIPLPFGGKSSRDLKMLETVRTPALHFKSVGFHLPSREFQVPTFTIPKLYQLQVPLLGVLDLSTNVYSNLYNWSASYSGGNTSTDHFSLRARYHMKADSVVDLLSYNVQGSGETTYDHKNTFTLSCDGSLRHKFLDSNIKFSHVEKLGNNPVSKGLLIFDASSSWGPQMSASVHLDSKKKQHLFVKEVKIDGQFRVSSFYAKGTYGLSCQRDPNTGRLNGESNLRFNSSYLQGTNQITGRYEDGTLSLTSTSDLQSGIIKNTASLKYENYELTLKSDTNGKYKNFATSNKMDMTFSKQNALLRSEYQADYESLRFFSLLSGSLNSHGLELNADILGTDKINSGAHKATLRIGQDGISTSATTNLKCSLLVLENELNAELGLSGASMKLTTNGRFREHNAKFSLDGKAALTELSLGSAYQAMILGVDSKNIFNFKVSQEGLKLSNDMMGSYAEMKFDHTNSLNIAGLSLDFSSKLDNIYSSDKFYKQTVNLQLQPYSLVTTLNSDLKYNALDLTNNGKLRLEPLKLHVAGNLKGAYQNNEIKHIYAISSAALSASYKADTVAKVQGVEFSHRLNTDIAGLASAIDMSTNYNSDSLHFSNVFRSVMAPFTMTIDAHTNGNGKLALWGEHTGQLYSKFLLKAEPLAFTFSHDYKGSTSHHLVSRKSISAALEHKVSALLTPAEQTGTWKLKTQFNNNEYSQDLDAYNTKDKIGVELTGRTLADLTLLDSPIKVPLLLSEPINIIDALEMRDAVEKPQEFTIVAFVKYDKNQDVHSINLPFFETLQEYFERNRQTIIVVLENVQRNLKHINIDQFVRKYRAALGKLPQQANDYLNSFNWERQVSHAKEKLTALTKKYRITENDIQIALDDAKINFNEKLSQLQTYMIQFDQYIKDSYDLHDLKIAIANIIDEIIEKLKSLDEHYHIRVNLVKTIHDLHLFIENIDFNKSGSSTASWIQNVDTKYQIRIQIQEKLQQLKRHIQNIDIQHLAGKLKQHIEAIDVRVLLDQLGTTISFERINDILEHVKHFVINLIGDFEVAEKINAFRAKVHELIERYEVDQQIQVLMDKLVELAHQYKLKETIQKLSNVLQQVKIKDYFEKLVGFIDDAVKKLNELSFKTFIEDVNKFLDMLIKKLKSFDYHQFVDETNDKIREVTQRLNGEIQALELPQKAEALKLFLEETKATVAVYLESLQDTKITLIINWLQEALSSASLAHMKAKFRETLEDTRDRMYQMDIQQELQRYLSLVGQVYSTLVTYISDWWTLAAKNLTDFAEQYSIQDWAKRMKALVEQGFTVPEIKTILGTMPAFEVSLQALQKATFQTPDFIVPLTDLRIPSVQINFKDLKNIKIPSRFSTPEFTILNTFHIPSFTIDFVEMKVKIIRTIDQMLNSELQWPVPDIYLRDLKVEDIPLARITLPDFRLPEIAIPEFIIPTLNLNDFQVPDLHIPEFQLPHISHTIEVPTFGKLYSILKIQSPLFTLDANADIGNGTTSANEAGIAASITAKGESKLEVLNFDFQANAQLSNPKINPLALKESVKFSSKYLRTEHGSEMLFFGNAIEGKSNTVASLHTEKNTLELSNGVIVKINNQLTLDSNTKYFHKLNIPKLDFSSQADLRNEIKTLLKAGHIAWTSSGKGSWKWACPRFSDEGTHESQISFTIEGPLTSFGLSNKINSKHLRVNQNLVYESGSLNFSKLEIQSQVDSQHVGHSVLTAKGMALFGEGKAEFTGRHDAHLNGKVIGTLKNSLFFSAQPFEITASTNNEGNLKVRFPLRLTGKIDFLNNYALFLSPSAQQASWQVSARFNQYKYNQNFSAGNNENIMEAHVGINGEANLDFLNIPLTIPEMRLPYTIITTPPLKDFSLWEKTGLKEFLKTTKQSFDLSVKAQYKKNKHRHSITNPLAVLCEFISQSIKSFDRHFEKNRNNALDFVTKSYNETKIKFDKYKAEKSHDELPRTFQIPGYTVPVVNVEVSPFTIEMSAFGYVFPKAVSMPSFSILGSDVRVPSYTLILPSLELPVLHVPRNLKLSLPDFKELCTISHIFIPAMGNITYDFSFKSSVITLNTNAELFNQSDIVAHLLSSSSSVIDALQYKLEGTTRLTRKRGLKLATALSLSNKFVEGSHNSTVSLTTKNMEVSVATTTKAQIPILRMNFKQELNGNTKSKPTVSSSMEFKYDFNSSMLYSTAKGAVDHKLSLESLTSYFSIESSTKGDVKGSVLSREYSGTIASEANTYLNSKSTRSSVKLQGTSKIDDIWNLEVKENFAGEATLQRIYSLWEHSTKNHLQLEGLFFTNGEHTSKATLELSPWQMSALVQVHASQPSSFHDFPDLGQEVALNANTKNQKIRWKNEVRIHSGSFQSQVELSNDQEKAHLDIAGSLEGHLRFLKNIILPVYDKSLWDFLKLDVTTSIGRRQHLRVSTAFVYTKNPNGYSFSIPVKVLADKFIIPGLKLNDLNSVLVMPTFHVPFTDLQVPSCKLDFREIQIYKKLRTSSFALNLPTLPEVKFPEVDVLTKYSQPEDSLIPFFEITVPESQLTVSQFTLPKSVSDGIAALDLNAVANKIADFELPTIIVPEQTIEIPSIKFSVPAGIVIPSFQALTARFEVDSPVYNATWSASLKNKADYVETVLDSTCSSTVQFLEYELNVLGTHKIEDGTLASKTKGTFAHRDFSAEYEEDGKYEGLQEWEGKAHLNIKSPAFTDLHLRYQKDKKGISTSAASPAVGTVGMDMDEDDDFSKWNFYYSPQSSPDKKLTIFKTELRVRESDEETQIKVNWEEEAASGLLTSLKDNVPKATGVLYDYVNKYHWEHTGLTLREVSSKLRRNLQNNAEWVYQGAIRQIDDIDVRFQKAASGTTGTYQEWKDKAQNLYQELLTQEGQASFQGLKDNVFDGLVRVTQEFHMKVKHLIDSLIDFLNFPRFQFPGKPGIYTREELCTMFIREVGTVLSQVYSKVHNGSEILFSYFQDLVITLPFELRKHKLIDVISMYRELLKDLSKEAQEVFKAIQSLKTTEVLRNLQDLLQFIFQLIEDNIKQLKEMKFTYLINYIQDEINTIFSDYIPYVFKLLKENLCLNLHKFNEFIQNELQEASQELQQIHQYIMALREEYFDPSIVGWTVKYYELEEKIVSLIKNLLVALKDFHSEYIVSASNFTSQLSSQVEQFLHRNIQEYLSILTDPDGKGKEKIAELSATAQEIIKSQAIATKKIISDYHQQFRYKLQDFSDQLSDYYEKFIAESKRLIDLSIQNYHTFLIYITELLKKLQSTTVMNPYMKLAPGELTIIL

| Binder | binding result (Apolipoprotein B100 [1]) | binding result (Apolipoprotein B100 [2]) |
| --- | --- | --- |
| B1 | binds |  |
| B2 |  | binds |
| B3 | binds |  |
